Measured values published in ChEMBL document CHEMBL4888484, “Replenishing the malaria drug discovery pipeline: Screening and hit evaluation of the MMV Hit Generation Library 1 (HGL1) against asexual blood stage Plasmodium falciparum ,using a nano luciferase reporter read-out” (2022).
In all, about 150,000 compounds went through this assay and about 540 (0.36%) showed an effect of 50% or more. The list shows a part of the results.

tested on: Plasmodium falciparum; test: Primary screen in NF54 nanoGlo assay, in single point, at 2uM, 72h; a lower Z score goes with more inhibition; format: functional, Erythrocyte; settings: timepoint 72 hour

Row | Structure (SMILES) | % Inhibition [%] | Z score
1 | OC12CC(Cc3cccnc31)c1ccccc12 (centres undefined) | 7 | -1.14
2 | Cc1ccc2[nH]nc(CNC(=O)CCN3CCCCC3)c2c1 | -3 | 0.61
3 | Cc1cccc(-n2cc(-c3ccnc(N[C@@H](C)Cc4ccncc4)n3)cn2)c1 | -14 | 2.61
4 | CN(Cc1ccco1)C(=O)CCCc1c[nH]c2ccccc12 | -5 | 0.71
5 | N#C[C@@H](NC(=O)CCCc1ccccn1)c1c(F)cccc1Cl | 1 | -0.1
6 | C[C@H](NC(=O)Cn1nnnc1CNC(=O)OC(C)(C)C)c1ccc(Cl)c(Cl)c1 | -1 | 0.24
7 | CCOC(=O)c1ccc(NC(=O)[C@H](CC)N2C(=O)CCn3nc(C)cc32)cc1 | 0 | 0.05
8 | CC(C)c1nc2ccc(NC(=O)N[C@H]3CCCOCC3)cc2s1 | 32 | -3.67
9 | O=C(c1ccncc1F)N1CCC(c2nccn2Cc2ccccc2)CC1 | -2 | 0.23
10 | CC(C)(C)C(=O)NCC(=O)N1CCCO1 | -10 | 1.11
11 | COc1cccc(NC(=O)[C@H]2CCCN(C(=O)c3nnc(C(=O)Nc4ccc5c(c4)OCO5)s3)C2)c1 | -43 | 3.77
12 | Cc1cccnc1[C@H](C)NC(=O)CCN(C)S(C)(=O)=O | 1 | -0.14
13 | COc1ccc(Cl)cc1N1C(=O)[C@@H]2[C@H](CC(N)=O)N[C@]3(C(=O)Nc4ccccc43)[C@@H]2C1=O | 1 | -0.11
14 | Cc1csc2c(N3CC[C@H](O)C3(C)C)ncnc12 | -3 | 0.51
15 | Cc1sc2ncnc(N3CCC[C@H](C)C3)c2c1C(=O)Nc1cccc(F)c1 | 1 | -0.14
16 | COc1ccc(NS(=O)(=O)c2cccc(C(=O)NCc3ccco3)c2)cc1Br | -12 | 1.55
17 | COc1ccc(CNC(=O)c2cc3n(n2)CCCN(Cc2ccc(F)cc2)C3=O)cc1 | -9 | 1.13
18 | O=C(CCOc1cccc(Cl)c1Cl)NCc1ccc2c(c1)OCO2 | -13 | 1.76
19 | CCn1nccc1C(=O)NCCN1Cc2cc(F)ccc2OCC1=O | -12 | 2
20 | O=S(=O)(c1ccc(Oc2ccc3ccccc3c2)nc1)N1CCOCC1 | -20 | 1.65
21 | CC(C)C[C@H](C)N(c1ccc2[nH]ccc2c1)S(=O)(=O)c1ccc(S(=O)(=O)NC2CC2)cc1 | -9 | 0.77

Row | Structure (SMILES) | % Inhibition [%] | Z score
22 | CN(CC1(O)CCOCC1)C(=O)NCC1(Cc2ccccc2)CCC1 | -12 | 1.57
23 | COc1cc([C@@H]2NCCC3(O)CCCCC23)cc(OC)c1OC (some centres undefined) | 8 | -0.98
24 | CCCN(Cc1c(-c2ccccc2)nn(C)c1Oc1ccc(F)cc1)C[C@H](O)COc1ccccc1 | 1 | -0.07
25 | CN(Cc1c(Cl)cncc1Cl)C[C@H]1COCCO1 | -20 | 2.64
26 | CC(C)(C)C(=O)NCc1cccnc1-c1ccccc1 | -9 | 1.06
27 | Cc1cnc(N2CCC(O)CC2)nc1N(C)C | -12 | 2.32
28 | Cc1nc(N(C)C)cc(N2CCN(C(=O)C3CCCC3)CC2)n1 | -17 | 1.88
29 | FC(F)(F)c1cccc(N2CCN(c3nc(-c4ccccc4)no3)CC2)c1 | -16 | 1.72
30 | Cc1ccc(CN2CCN(C[C@@H](O)Cn3c4ccccc4n4c(=O)cc(C)c(C#N)c34)CC2)c(C)c1 | 86 | -13.14
31 | Cc1ccc(C(=O)Nc2ccc(-n3cc(Br)cn3)nc2)c(=O)n1C | -4 | 0.53
32 | O=C(Nc1cccnc1-n1cccn1)c1cc(-c2ccccc2)c(N2CCOCC2)s1 | -5 | 0.61
33 | O=C(c1ccc2snnc2c1)N1CCN(c2ccccc2)CC1 | -8 | 1.38
34 | CC1(C)C(O)CC1Nc1ccc(F)cc1C#N (centres undefined) | -13 | 1.33
35 | CC(C)(C)OC(=O)N1CCN(C[C@H]2CN(c3ccc(F)cc3)C(=O)O2)CC1 | 37 | -4.77
36 | COc1cc(CN(C(=O)c2ccc(-n3cccn3)cc2)[C@H]2CCCCNC2=O)ccc1OCCc1ccccn1 | 11 | -1.41
37 | COc1ccc2c(c1)CC[C@H](NCCCn1ccccc1=O)C2 | -7 | 1.28
38 | N#CC1(NC(=O)Cc2cc(Cl)ccc2Br)CC1 | -4 | 0.33
39 | O=C(Nc1cnc(Oc2ccccc2)nc1)Nc1ccc(F)cc1F | -1 | 0.21
40 | O=C(c1cc(C2CC2)n[nH]1)N1CCN(c2ccc(F)cc2)CC1 | -11 | 1.36
41 | O=C1c2cccn2CCC1C(O)c1ccncc1 (centres undefined) | 2 | -0.24
42 | CCN(CC)c1ccc(C(=O)N2CCN(c3ccccc3OC)CC2)cc1 | -7 | 0.83

Row | Structure (SMILES) | % Inhibition [%] | Z score
43 | Nc1cc(CCc2c(F)cccc2Cl)n[nH]1 | -14 | 1.93
44 | O=C(c1nccc2ccccc12)N1CCC[C@H]1c1ccc[nH]1 | -7 | 1.09
45 | CC(C)(C)OC(=O)Nc1ccccc1NCc1ccsc1 | -4 | 0.36
46 | COC(=O)C1C2CCCC2CN1Cc1ncnn1C (centres undefined) | 0 | -0.07
47 | CCC(O)CN1CCCC(CNC(=O)C(C)(C)C)C1 (centres undefined) | -13 | 1.83
48 | COc1ccc(CN2C(=O)N[C@@H](CC(=O)Nc3nc(C)cs3)C2=O)cc1OC | -14 | 1.79
49 | O=C(CCCn1cncn1)N1CCc2cc3ccc2[C@@H]1c1cccc(c1)OCCCn1cc(nn1)CO3 | -13 | 1.65
50 | O=C(O)C1(CCCc2ccccc2)CCN(c2ncnc3[nH]ccc23)CC1 | -2 | 0.33
51 | CN(C)c1ccc(/C=C(/c2ccccc2)c2nc3ccccc3[nH]2)cc1 | -1 | 0.13
52 | Cc1cn(-c2c(F)cccc2F)nc1C(=O)NCc1ccc2c(c1)OCO2 | -10 | 1.3
53 | CCCCCOCC(=O)N[C@@]1(C(N)=O)CCOC1 | 17 | -2.1
54 | O[C@H]1CN(Cc2ccco2)CCN(c2nnnn2-c2ccccc2)C1 | 2 | -0.31
55 | O=S1(=O)CC(O)C(N2CCN(C(c3ccccc3)c3ccccc3)CC2)C1 (centres undefined) | -4 | 0.53
56 | CC1CCN(C(=O)CN2C(=O)COc3ccc(S(=O)(=O)N4CCC(C)CC4)cc32)CC1 | -12 | 2.18
57 | O=C(CCN1CCCCCC1=O)NCCNC(=O)c1ccc(F)cc1 | -16 | 2.32
58 | COc1ccc(S(=O)(=O)N2CCOCC2)cc1NC(=O)c1ccc2c(c1)C(=O)N(c1cc(C)ccc1C)C2=O | -4 | 0.72
59 | Cn1c2c(cc(C(=O)N3CCC[C@H](c4cccc(C(=O)O)c4)C3)c1=O)CCCC2 | 5 | -0.76
60 | COc1ccc(C(=O)N2CCCC[C@H]2c2ccc(F)cc2)c(OCCN)c1 | -6 | 0.59
61 | O=C(C1CCC1)N1CC(Oc2nccs2)C1 | -5 | 0.67
62 | CCCN(CC1CC1)C(=O)c1csc(NC(=O)c2cc(F)cc(F)c2)n1 | -13 | 1.81
63 | CC1CC1C(NC(=O)C1CCNCC1)c1ccc(Cl)cc1 (centres undefined) | -15 | 1.37

Row | Structure (SMILES) | % Inhibition [%] | Z score
64 | O=S1(=O)NC[C@H](O)CNC[C@@]2(COc3cc(-c4ccccc4)ccc31)C[C@@H](O)[C@@H](O)C2 | -14 | 1.78
65 | CCN1CCN(C(=O)c2cc3cc(NC(=O)c4cccc(F)c4)ccc3n2Cc2cccc(F)c2)CC1 | 2 | -0.28
66 | O=C(CCn1cnc2cc(-c3noc(-c4ccco4)n3)ccc21)N1CCOCC1 | -7 | 0.89
67 | CC1(C)OC(=O)N(CC(=O)N2CCO[C@H](c3ccccc3)C2)C1=O | -4 | 0.61
68 | CC(C)c1ccc(CN2C[C@@H]3C(=O)N(CCCN4CCCC4=O)C(=O)[C@@H]3C2)cc1 | -9 | 1.11
69 | COCCN1C(=O)C[C@H](C(=O)N(C)CCc2nccs2)[C@H]1c1nccn1C | -18 | 2.18
70 | Cc1ccc(S(=O)(=O)Nc2cccc3c2CN(C(C)C)C3)o1 | -9 | 1.37
71 | Cc1cccc2cc(C(=O)N3CCC[C@]4(CCC(=O)N(C5CC5)C4)C3)n(C)c12 | -15 | 2.89
72 | Cn1cncc1C(=O)N1CCOCC1C1CCCC1=O (centres undefined) | -4 | 0.66
73 | CN(Cc1ccncc1)C(=O)CNC(=O)Cc1c(F)cccc1F | -9 | 1.21
74 | COc1ccc(NC(=O)CC[C@H]2CCCN(C(=O)c3c[nH]c4ccccc34)C2)c(C)c1 | -4 | 0.63
75 | Cc1cc(N(C)Cc2cc(C)on2)n2ncnc2n1 | 5 | -0.87
76 | O=C(CNC(=O)C1CCCCC1)N[C@H]1CCCc2ccccc21 | 12 | -1.43
77 | CCc1c[nH]c2ncnc(N(C)Cc3nc(-c4cccs4)no3)c12 | -9 | 1.49
78 | CC(C)[C@@H]1CN(C)CCN1C(=O)c1cnn(-c2ccncc2)c1 | -11 | 2.07
79 | CC(=O)N(C1CCOCC1)[C@H]1CCN(S(=O)(=O)c2ccc(F)c(F)c2)C1 | -10 | 1.68
80 | c1ccc2c(-n3nc(C4CC4)nc3CCN3CCCO3)nccc2c1 | 11 | -1.57
81 | OCC1CCN(c2nnnn2Cc2c(Cl)cccc2Cl)CC1 | -5 | 0.83
82 | COc1ccccc1C1CC1NC(=O)NCCC1CCCO1 (centres undefined) | -2 | 0.4
